Results reported in the supplement of paper PMC4466236.
Over roughly 33,000 sequences, “E-score (dimensionless, -0.5 to 0.5)” has its median near -0.058; the highest 2% begin near 0.35. The list shows a part of the results.

system: MvaT; assay: PBM 8-mer E-score (mean of HK and ME arrays) (E-score (dimensionless, -0.5 to 0.5)); higher = stronger relative binding preference; most listed sequences are background and not binding sites
Procedure, shortened: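 Reported values are rank-based E-scores, taken as the mean of two universal arrays and parsed with a custom script. Each 8-mer score falls between -0.5 and 0.5. The arrays, ME and HK, were double-stranded 60-mers with a constant 25-mer primer region and a variable 35-mer region covering all 8-mers. They were probed, by an earlier protocol, with full-length P. aeruginosa MvaT carrying an N-terminal glutathione S-transferase fusion.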

Sequence	PBM 8-mer E-score
AGGGTGTC	-0.156
CAGGAGAG	-0.196
AGAGCAAA	0.0556
CCAAGAGG	-0.282
GTCTGCTA	-0.157
CCCCCTCG	-0.353
CAAGACCA	-0.0823
ATAGAATA	0.314
AAGGAGGC	-0.228
CATGACGC	-0.222
ACTTCTGC	0.0207
ATTATGGG	0.207
CGTCGGCC	-0.384
GAGCCTTA	-0.229
GACTTGGC	-0.156
ATGACAAG	0.000949
GTCATTCA	-0.0469
GCAAAACA	0.0104
GTACGTAC	-0.0487
CGCGGGGA	-0.22
ACCCGTAA	0.149
CCCTCGAC	-0.287
AATACTAT	0.297
AGTATATC	0.259
ATGTAGGA	0.0586

Sequence	PBM 8-mer E-score
CGGTTTTC	-0.112
ATCGACAT	-0.11
CGTAACTA	0.131
AAAAGAGC	-0.0652
CGTTCGGC	-0.146
CTACCATC	0.0334
AGAGCTTA	-0.124
ATCTCATA	-0.00882
CCCGGAAC	-0.119
AACTGTAA	0.248
GAGGCCGC	-0.271
GCTGCACC	-0.3
CGCATTAC	-0.128
ACCTCATC	-0.114
CGGGCTTA	-0.116
CGGACCCG	-0.216
CCCGTGTA	-0.0703
CAGAGCGG	-0.251
CCTGCCTA	-0.146
AGTTGTTG	0.223
ATATACTA	0.422
AAGAAACG	-0.00721
TCAGTCGA	-0.102
CCTGAGAA	0.0172
GACATGTC	-0.113

Sequence	PBM 8-mer E-score
AAAAAACA	0.206
ACCCGGAC	-0.265
ATTATCTA	0.269
GTTATGCA	0.214
GGCTACCC	-0.286
GGATCCGA	-0.181
ATCATACC	0.048
GAAGGCGA	-0.262
ACACCAGG	-0.0463
AAATCAAC	0.0396
CTCGCTCC	-0.221
AGGTATTC	-0.0798
ACGCGGGC	-0.202
AATACGCA	0.0135
AGCGAGCA	-0.14
GTCGCCTA	-0.0923
CGAGCCAA	-0.224
CCACGGAC	-0.062
AGCGGGTG	-0.0873
GATTACAC	0.18
GCAAGGGA	-0.27
ACCTTCAC	-0.0816
ATATTATC	0.439
CTAGGCCC	-0.265
AGTCGCTA	-0.105

Sequence	PBM 8-mer E-score
CATAGCCA	-0.247
GACCGTAC	-0.209
CACTGAAA	0.0505
ATGTCCAC	0.0955
ATCCTATA	0.189
GTGGGACA	-0.0255
CAAGTCCC	-0.185
ACGTCACC	-0.0844
CGATAATC	0.203
AGGCTACG	-0.289
AGTTTTAA	0.259
GTAAAAAC	0.181
GCTCCCTA	-0.283
CCTAAACG	-0.0804
GCTCGGAA	-0.0572
ACCGAACG	-0.218
GCGCGAAA	-0.00383
AGCTGTGG	-0.223
AATGTAGG	0.101
CCCTAGAC	-0.259
AGTCCCTG	-0.155
GACTTCGC	-0.11
CTGTTTGA	0.0385
CGCTGTTC	-0.0932
TGGCTTAA	0.145

Sequence	PBM 8-mer E-score
AAGGTTCA	-0.123
TCGCTAGA	-0.02
TAACTCTA	0.259
GCGCTAGA	-0.127
CAGAACAC	-0.0704
AGGCCGAC	-0.257
TTGGCCAA	-0.0832
AAGAGTAT	0.189
AGCACAGC	-0.139
CTGTCCGA	-0.0818
CACAAGAC	-0.103
AACAGGCT	-0.216
CATATCCA	0.176
CAAATCCC	-0.0516
AAGCCTGG	-0.137
CCTGTGGC	-0.308
ATGGATCA	-0.0944
GCTTCTCC	-0.314
ACAGTGAC	-0.0911
CATCGGCG	-0.259
CGTCAATA	0.197
ATGCGGAC	-0.0939
CTGGTACC	-0.174
TTCGCCAA	-0.00624
GCATAAGA	0.0363

Sequence	PBM 8-mer E-score
CTCTGGAC	-0.207
CTCGGCTA	-0.108
ATAGTACC	0.0557
AGACTCGA	-0.0278
ATTTGGCG	0.1
GGTACCAC	-0.183
ACTGTCCT	-0.0272
AATTTCGG	0.234
AAATTTTG	0.216
AGCACTGC	-0.245
AAGTCAGC	-0.0121
ATTGCCAG	0.0835
AATACCAC	0.206
GAACTATC	0.105
CAGAACCG	-0.137
CTAATCCA	0.12
CAACAAAC	0.282
GTGCACAC	-0.00272
TAGCCCAA	-0.00206
ACACTCTG	-0.0366
CCGCCACC	-0.13
ACTCTGCG	0.0292
ATAGCGCG	0.135
GGCTGACA	-0.0719
CATTCGGC	-0.217

Sequence	PBM 8-mer E-score
AGCGGTCA	-0.0602
TCTATTCA	-0.0033
ACCCGACT	-0.0208
GCGAATCC	-0.138
AAGCCGAG	-0.135
ACGAGAGG	-0.161
TACTTCTA	0.273
AATACAGA	0.153
CGTACATA	0.192
CTCCCTTC	-0.243
CTCTTGAC	-0.19
GTTTTGTA	0.194
GACGCGAC	-0.154
AGCAAGAT	-0.0566
AACGGGTC	-0.234
AACAAGAA	0.188
AGTGGATG	-0.196
ACAGACCC	-0.136
TACCTGAA	0.0511
AACATTCG	0.0984
AATTACCG	0.197
GTTCAGAA	0.00771
AAAGCCCG	-0.248
CGGTGCCA	-0.237
AACTATCA	0.274

Sequence	PBM 8-mer E-score
CTGCGCGC	-0.273
GTATTACA	0.224
AGATGGCA	-0.156
ACCTGAGC	-0.27
ACTCAGAT	0.101
ACGATTAA	0.19
TCCGCGCA	-0.154
AAAGGTGG	0.000476
ACGGCCTA	-0.163
CCAGGGAC	-0.226
ATGTCTTC	0.0651
ACCCAAAC	0.192
ATCCCCAC	-0.248
CTAGTGAA	-0.132
ATTCTTTG	0.116
ATTAAGGA	0.183
AGCTGCGA	-0.0661
GCCATTCA	0.0412
GCTGATGA	-0.137
ACCTTCGC	-0.239
CAGCGGAG	-0.203
GACCGGAC	-0.168
CTCTAATC	0.117
CACGAGTC	-0.188
CAAACGAG	-0.112

Sequence	PBM 8-mer E-score
ATATTGAA	0.331
AATCATAG	0.11
CAACAGCA	-0.0323
GTTCGTGA	-0.073
AAGAGGCC	-0.121
AGCGCCCT	-0.282
GGTAGACC	-0.263
GTGACCGA	-0.0854
GACCGACC	-0.215
CAAAGTGG	-0.168
AGTACGTA	0.0272
ACGAAGCG	-0.226
CACCACTG	-0.187
ATCGACGA	-0.042
CCGACTAC	-0.231
CAGGTCCA	-0.224
CTTGCGCC	-0.238
CACTAGCA	-0.205
AGATACGA	-0.0933
